PubChem BioAssay (NCATS)
The shares of active, inactive and inconclusive entries below differ from those in the screen. For some assays here: Potencies of inconclusive entries are doubtful fits and often do not repeat. For some assays here: A note “side channel” means that the fit belongs to a control or component signal, not to the main read-out. Activity calls are given as the source filed them. Unless noted, calls come from the whole dose curve; as a rule, active = well fitted curve in the direction sought with a large enough effect; inconclusive = small, poorly fitted or top-dose-only effect, or another doubt; inactive = no such curve, though single readings can be large; an effect the other way counts as inactive or inconclusive.

Key:
[1] = Cell Viability - H-4-II-E (AID 543); conditions: H-4-II-E rat hepatoma viability; series mostly up to 92.2 µM;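 note: cells exposed to compound for 40 hours; % is set by controls: 0 for no effect and ±100 for the full control effect; nearly all actives have a fitted effect of over 35% in size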
Outline: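 CellTiter-Glo luminescence (intracellular ATP) measured after 40 h compound exposure at 37 °C in H-4-II-E rat hepatoma cells seeded at 1500/well. Values are AC50s fitted with the standard Hill equation.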

[2] = Cell Viability - LYMP2-004 (AID 966); conditions: LYMP2-004 lymphoblastoid cell viability, qHTS; activity change, negative = cytotoxicity: at 92.2 µM (top of the series); note: potency is the fitted concentration of half-maximal effect; nearly all actives have a fitted effect of over 65% in size
Outline: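 AC50 values come from Hill modelling of concentration-dependent loss of intracellular ATP, measured by CellTiter-Glo luminescence. Human LYMP2-004 lymphoblastoid cells (2500/well) were exposed to compound for 24 h at 37 C.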

[3] = target: Estrogen receptor (Homo sapiens) (UniProt P03372); assay: qHTS assay for small molecule agonists of estrogen receptor alpha signaling (AID 588514; calls by dose curve;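 note: 0% = vehicle only and 100% = reference agonist; nearly all actives have a fitted effect of over 70% in size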); conditions: ER-alpha-UAS-bla HEK293, beta-lactamase ratio, 18 h; activation: at 76.8 µM (top of the series), percent of full estradiol response, vehicle zero unless noted
Sequence of UniProt P03372 (P03372 whole entry, looked up): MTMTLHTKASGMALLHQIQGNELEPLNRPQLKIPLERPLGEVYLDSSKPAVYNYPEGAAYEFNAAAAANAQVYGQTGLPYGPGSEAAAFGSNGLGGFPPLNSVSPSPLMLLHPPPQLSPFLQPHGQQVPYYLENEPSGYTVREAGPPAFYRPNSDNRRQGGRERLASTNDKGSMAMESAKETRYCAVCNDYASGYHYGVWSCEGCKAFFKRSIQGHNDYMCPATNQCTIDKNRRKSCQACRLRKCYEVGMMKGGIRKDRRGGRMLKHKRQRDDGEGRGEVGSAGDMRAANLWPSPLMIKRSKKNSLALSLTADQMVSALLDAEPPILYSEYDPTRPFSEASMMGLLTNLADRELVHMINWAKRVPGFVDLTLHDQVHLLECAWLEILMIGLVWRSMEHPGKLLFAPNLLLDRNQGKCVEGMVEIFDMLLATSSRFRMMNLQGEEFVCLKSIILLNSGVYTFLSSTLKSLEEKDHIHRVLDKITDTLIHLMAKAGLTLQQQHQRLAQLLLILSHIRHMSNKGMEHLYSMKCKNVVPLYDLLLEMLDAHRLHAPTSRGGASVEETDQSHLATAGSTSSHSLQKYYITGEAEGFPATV
Outline: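 EC50 and efficacy came from Hill fits of beta-lactamase reporter signal (CCF4 dye, 2 h at room temperature) scaled between DMSO and 20 nM 17-beta-estradiol. Agonist mode: HEK293 ER-alpha-UAS-bla cells in charcoal/dextran-stripped serum medium, 18 h compound exposure at 37 C.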

[4] = target: Glucocorticoid receptor (Homo sapiens) (UniProt P04150); assay: qHTS assay for small molecule agonists of glucocorticoid receptor signaling (AID 588532; active = well fitted curve in the direction sought with a large enough effect in the signal ratio, with a control signal flat; inconclusive = small, poorly fitted or top-dose-only effect, or a change in a side signal; inactive = no such curve, though single readings can be large or run the other way; the % refers to the signal ratio; note: potency is the fitted concentration of half-maximal effect); conditions: HeLa MMTV-bla, beta-lactamase ratio, agonist, 18 h; activation: active compounds read high, percent of dexamethasone control, DMSO zero
Outline: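 MMTV-bla HeLa beta-lactamase reporter cells in 1% charcoal/dextran FBS medium, compounds up to 92 uM for 18 h at 37 C, CCF4 readout; normalized to 0.1 uM dexamethasone (100%), EC50 and efficacy from Hill fits.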

[5] = target: Vitamin D3 receptor (Homo sapiens) (UniProt P11473); assay: qHTS assay for small molecule antagonists of vitamin D receptor signaling (AID 588541; calls by dose curve;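 note: receptor activated by calcitriol during compound treatment; % is set by controls: 0 for no effect and ±100 for the full control effect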); conditions: HEK293T VDR-UAS-bla, beta-lactamase ratio, antagonist mode; activity change, negative = inhibition: at 76.7 µM (top of the series)
Sequence of UniProt P11473 (P11473 whole entry, looked up): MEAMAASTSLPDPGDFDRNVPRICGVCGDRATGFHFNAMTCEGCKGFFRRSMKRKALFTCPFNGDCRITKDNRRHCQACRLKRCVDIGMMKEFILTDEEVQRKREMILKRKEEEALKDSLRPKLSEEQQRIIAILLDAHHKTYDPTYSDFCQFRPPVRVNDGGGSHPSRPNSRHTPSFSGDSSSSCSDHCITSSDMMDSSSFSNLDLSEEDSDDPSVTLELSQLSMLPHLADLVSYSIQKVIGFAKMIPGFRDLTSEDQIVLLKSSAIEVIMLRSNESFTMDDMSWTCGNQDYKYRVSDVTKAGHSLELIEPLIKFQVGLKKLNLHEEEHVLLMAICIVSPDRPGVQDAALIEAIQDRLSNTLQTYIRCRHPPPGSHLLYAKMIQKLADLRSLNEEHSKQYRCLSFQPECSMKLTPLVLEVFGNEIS

[6] = target: Thyroid hormone receptor beta (Homo sapiens) (UniProt P10828); assay: qHTS assay for small molecule agonists of thyroid hormone receptor beta signaling (AID 588545; calls by dose curve; note: potency is the fitted concentration of half-maximal effect); conditions: TR-UAS-bla GripTite HEK 293, beta-lactamase ratio, agonist mode, 18 h; activation: at 76.7 µM, percent of T3 response, DMSO as zero
Sequence of UniProt P10828 (P10828 whole entry, looked up): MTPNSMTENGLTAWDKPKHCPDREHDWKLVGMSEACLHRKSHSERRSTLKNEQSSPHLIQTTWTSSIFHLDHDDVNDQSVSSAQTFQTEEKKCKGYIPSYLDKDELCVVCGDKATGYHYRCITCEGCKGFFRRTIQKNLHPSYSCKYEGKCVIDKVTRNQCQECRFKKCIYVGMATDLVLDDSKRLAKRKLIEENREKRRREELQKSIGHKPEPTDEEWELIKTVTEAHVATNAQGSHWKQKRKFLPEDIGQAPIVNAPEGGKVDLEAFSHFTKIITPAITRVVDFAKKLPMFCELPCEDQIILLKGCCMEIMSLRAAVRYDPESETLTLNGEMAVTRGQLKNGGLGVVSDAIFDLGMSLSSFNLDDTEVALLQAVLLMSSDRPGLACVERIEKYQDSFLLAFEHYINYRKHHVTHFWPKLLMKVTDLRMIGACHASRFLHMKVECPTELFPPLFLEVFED
Outline: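 HEK 293 TR-UAS-bla; agonist mode; 18 hrs, 37 C; CCF4, ex 405/em 460 and 530 nm; norm. T3 10 nM = 100%, DMSO = 0%; Hill fit → EC50, efficacy.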

[7] = qHTS assay to identify small molecules that stimulate interleukin-8 (IL-8) secretion (AID 651758; active = well fitted activation curve with a large enough effect in the signal ratio; inconclusive = small, poorly fitted or top-dose-only effect, or effect the other way, or a change in a side signal; the % refers to the signal ratio; note: 0% is about no effect); conditions: HTRF ratio (665/615); activation: at 92.2 µM (top of the series)
Outline: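 Compounds are added to THP-1 cells (2000 per well) and left 16 hrs at 37 C. A labeled anti-IL-8 antibody pair is then added, and IL-8 secretion is measured by time-resolved FRET after 1-3 hrs at room temperature.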

[8] = qHTS assay for small molecule agonists of the antioxidant response element (ARE) signaling pathway measured by Nrf2-dependant transcriptional activity (AID 720636; active = well fitted curve in the direction sought with a large enough effect in the repeat runs; inconclusive = weak or mixed curves; inactive = no such curve, though single readings can be large; an effect the other way counts as inactive or inconclusive;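 note: HepG2 cells with an ARE-driven luciferase reporter; % of control where 0% means no effect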); conditions: ARE-luc HepG2, Nrf2 luciferase reporter, 16 h; series mostly up to 92.4 µM
Outline: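 Attachment 6 hr at 37 C, then compound versus DMSO vehicle for 16 hr in ARE-luc HepG2 cells (1% dialyzed FBS); luminescence recorded 30 min after ONE-Glo addition at room temperature.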

[9] = Cell Viability - NIH 3T3 (AID 541); conditions: NIH 3T3 cell viability, qHTS; activity change, negative = cytotoxicity: at 92.2 µM (top of the series);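 note: cells exposed to compound for 40 hours; nearly all actives have a fitted effect of over 25% in size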; note: potency is the fitted concentration of half-maximal effect;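 for activity change, negative = cytotoxicity: plate controls were DMSO alone for no effect and tamoxifen positive control for full effect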
Outline: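 Intracellular ATP (CellTiter-Glo luminescence, 20 min at room temperature) measured after 40 hr compound exposure at 37 °C of 1000 NIH 3T3 mouse fibroblasts/well in complete medium; AC50 derived by Hill-equation modelling of qHTS concentration-response curves.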

[10] = Cell Viability - LYMP2-001 (AID 921); conditions: LYMP2-001 lymphoblastoid cell viability; activity change, negative = cytotoxic: at 92.2 µM (top of the series);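 note: 0% = DMSO only and full inhibition = tetraoctylammonium bromide control wells; nearly all actives have a fitted effect of over 70% in size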
Outline: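 A lymphoblastoid cell line of human origin was treated with library compounds across a concentration series for 24 hours, and viable cell number was estimated from ATP-driven luciferase light output. Hill modeling gave AC50.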

[11] = MultiTox-Fluor Cytotoxicity Assay - LYMP1-001 - Live Cells (AID 947); conditions: LYMP1-001 lymphoblastoid cells, live-cell protease fluorescence viability; series mostly up to 92.2 µM;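 note: 0% = DMSO only and full inhibition = tetraoctylammonium bromide control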
[12] = target: Estrogen receptor (Homo sapiens) (UniProt P03372); assay: qHTS assay for small molecule antagonists of estrogen receptor alpha signaling (AID 588513; active = well fitted curve in the direction sought with a large enough effect in the signal ratio, with a control signal flat, not every such curve was filed as active; inconclusive = small, poorly fitted or top-dose-only effect, or effect the other way, or a change in a side signal; inactive = no such curve, though single readings can be large or run the other way; the % refers to the signal ratio; note: % is set by controls: 0 for no effect and ±100 for the full control effect); conditions: ER-alpha-UAS-bla HEK293, beta-lactamase ratio, antagonist mode; activity, negative = inhibition: at 76.9 µM (top of the series) unless noted
Outline: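 Antagonist-mode qHTS in ER-alpha-UAS-bla HEK 293 cells: compound titration, 0.5nM estradiol for 18 h, CCF4 fluorescence, Hill-derived IC50.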

[13] = target: Peroxisome proliferator-activated receptor gamma (Homo sapiens) (UniProt P37231); assay: qHTS assay for small molecule antagonists of peroxisome proliferator-activated receptor gamma signaling (AID 588537; active = well fitted inhibition curve with a large enough effect in the signal ratio, with a control signal flat, not every such curve was filed as active; inconclusive = small, poorly fitted or top-dose-only effect, or effect the other way, or a change in a side signal; the % refers to the signal ratio;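 note: reporter cells co-stimulated with 50 nM rosiglitazone agonist during compound treatment; % of control where 0% means no effect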); conditions: HEK293 PPARg-UAS-bla, beta-lactamase ratio, antagonist mode; activity, negative = inhibition: at 76.8 µM (top of the series) unless noted
Outline: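 Fluorescence at 460 and 530 nm (405 nm excitation) reported beta-lactamase cleavage of CCF4 after 2 h room-temperature loading. HEK293 reporter cells in 1% charcoal/dextran-treated FBS had received compound and rosiglitazone for 16 h.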

[14] = qHTS assay for small molecule agonists of the antioxidant response element (ARE) signaling pathway (AID 651741; active = well fitted activation curve with a large enough effect in the signal ratio; inconclusive = small, poorly fitted or top-dose-only effect, or effect the other way, or a change in a side signal; the % refers to the signal ratio; note: % of control where 0% means no effect); conditions: HepG2 ARE-bla reporter, beta-lactamase FRET ratio, 16 h
Outline: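 Stably integrated ARE-beta-lactamase reporter HepG2 cells; 16 h compound incubation, 37 C; LiveBLAzer FRET substrate 2 h at room temperature; fluorescence intensity.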

[15] = qHTS assay for small molecule disruptors of the mitochondrial membrane potential - 1 hr assay (AID 651754; calls by dose curve; note: nearly all actives have a fitted effect of over 35% in size; note: potency is the fitted concentration of half-maximal effect); conditions: ratio change, negative = depolarisation: at 92.2 µM (top of the series)
Outline: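 Mitochondrial potential in living HepG2 cells after 1 hr compound treatment at 37C was read with Mito-MPS dye added for a further 30 min. Red aggregate and green monomer fluorescence were measured; loss of potential leaves dye as cytoplasmic monomers.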

[16] = Cell Viability - HUV-EC-C (AID 542); conditions: HUV-EC-C endothelial cell viability, qHTS; series mostly up to 92.2 µM;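 note: cells exposed to compound for 40 hours; % is set by controls: 0 for no effect and ±100 for the full control effect; nearly all actives have a fitted effect of over 35% in size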
Outline: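 CellTiter-Glo luminescence measured ATP loss in HUV-EC-C cells (1000/well) after 40 hr compound exposure at 37 °C, in complete culture medium. Concentration-response data were Hill-fitted to give AC50.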

[17] = Cell Viability - LYMP1-002 - Assay at 40 hr (AID 994); conditions: LYMP1-002 lymphoblastoid cell viability; at 92.2 µM (top of the series);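 note: 0% = DMSO only and full inhibition = 92 µM tetraoctylammonium bromide; nearly all actives have a fitted effect of over 60% in size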
Outline: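 Cytotoxicity was read as loss of cellular ATP (CellTiter-Glo luminescence) after 40 hr compound exposure at 37 C of 2500 LYMP1-002 lymphoblastoid cells per well. Concentration-response data were fitted with the standard Hill equation to give AC50.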

[18] = target: Androgen receptor (Homo sapiens) (UniProt P10275); assay: qHTS assay for small molecule antagonists of androgen receptor signaling (AID 588516; active = well fitted curve in the direction sought with a large enough effect in the signal ratio, with a control signal flat, not every such curve was filed as active; inconclusive = small, poorly fitted or top-dose-only effect, or effect the other way, or a change in a side signal; inactive = no such curve, though single readings can be large or run the other way; the % refers to the signal ratio; note: potency is the fitted concentration of half-maximal effect); conditions: AR-UAS-bla HEK293, beta-lactamase ratio, antagonist mode, 16 h; activity change, negative = inhibition: at 76.8 µM (top of the series)
Sequence of UniProt P10275 (P10275 whole entry, looked up): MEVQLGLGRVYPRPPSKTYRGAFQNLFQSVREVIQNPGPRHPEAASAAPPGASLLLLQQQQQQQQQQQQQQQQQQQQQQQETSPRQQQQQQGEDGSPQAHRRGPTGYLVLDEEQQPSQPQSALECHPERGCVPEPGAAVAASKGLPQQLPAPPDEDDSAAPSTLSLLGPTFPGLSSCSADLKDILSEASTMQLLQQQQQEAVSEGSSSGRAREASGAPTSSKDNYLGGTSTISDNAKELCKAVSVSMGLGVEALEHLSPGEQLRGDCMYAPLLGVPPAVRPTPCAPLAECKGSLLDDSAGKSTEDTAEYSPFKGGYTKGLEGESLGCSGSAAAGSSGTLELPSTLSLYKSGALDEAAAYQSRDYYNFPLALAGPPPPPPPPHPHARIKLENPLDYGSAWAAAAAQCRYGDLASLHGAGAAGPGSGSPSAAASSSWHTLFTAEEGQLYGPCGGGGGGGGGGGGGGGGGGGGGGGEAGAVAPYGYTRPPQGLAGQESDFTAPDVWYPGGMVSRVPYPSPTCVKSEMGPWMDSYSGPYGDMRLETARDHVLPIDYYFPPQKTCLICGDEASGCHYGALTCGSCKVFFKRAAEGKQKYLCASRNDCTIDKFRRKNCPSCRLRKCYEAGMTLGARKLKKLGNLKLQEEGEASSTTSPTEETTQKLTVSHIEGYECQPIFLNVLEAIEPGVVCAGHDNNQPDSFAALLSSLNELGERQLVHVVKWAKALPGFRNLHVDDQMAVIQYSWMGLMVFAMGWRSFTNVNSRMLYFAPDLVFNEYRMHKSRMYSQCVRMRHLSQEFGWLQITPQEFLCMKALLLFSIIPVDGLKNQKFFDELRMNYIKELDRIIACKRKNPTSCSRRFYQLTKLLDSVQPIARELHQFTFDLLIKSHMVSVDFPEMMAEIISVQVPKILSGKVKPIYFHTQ
Outline: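 Antagonist mode: inhibition of R1881-stimulated (10 nM final) bla reporter in GeneBLAzer AR HEK 293 cells, 16 h at 37C, compounds titrated. IC50 and efficacy from Hill-equation fits of 405/460–530 nm FRET ratios.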

[19] = qHTS assay for small molecule disruptors of the mitochondrial membrane potential - 5 hr assay (AID 651755; calls by dose curve; note: % is set by controls: 0 for no effect and ±100 for the full control effect; nearly all actives have a fitted effect of over 40% in size); conditions: JC-1-type ratio dye; ratio change, negative = disruption: at 92.2 µM (top of the series)
Outline: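 Read-out: ratiometric Mito-MPS fluorescence, green monomer (ex 490/em 535) vs red mitochondrial aggregate (ex 540/em 590). HepG2 cells treated 5 hr at 37C before 30 min dye loading.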

[20] = target: Cytochrome P450 3A4 (Homo sapiens) (UniProt P08684); assay: qHTS Assay for Inhibitors and Substrates of Cytochrome P450 3A4 (AID 884); conditions: recombinant CYP3A4, Luciferin-PPXE luminescence; activity change, negative = inhibition: at 57.1 µM (top of the series) unless noted; note: % is set by controls: 0 for no effect and ±100 for the full control effect; nearly all actives have a fitted effect of over 50% in size
Sequence of UniProt P08684 (P08684 whole entry, looked up): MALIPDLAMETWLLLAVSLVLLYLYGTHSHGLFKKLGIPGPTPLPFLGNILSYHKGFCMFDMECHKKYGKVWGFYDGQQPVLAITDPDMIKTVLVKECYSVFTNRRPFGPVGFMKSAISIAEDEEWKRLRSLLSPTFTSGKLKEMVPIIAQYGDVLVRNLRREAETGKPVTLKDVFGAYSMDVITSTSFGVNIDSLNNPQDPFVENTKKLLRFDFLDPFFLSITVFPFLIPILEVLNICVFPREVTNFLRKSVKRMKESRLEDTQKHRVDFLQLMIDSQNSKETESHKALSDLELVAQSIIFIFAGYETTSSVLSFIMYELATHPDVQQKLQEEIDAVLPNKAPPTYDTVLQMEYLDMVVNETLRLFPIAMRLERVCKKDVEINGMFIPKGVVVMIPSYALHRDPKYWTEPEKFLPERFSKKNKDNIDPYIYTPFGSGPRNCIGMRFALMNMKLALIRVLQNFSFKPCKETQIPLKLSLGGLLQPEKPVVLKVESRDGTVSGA
Outline: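 Luminescent readout of luciferin produced by CYP3A4 (20 nM) dealkylation of Luciferin-PPXE, 25 uM (its KM). NADPH-driven reaction ran 60 min at RT after 10 min compound preincubation; data scaled to 57 uM ketoconazole as 100% inhibition.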

[21] = target: Bile acid receptor (Homo sapiens) (UniProt Q96RI1); assay: qHTS assay for small molecule agonists of farnesoid X receptor signaling (AID 588527; calls by dose curve; note: potency is the fitted concentration of half-maximal effect); conditions: HEK293T FXR-UAS-bla, beta-lactamase ratio, 16 h; activation: active compounds read high
Outline: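 FXR-UAS-bla HEK293T cells (10% dialyzed FBS) preincubated 5-7 h at 37 C, then compounds at up to 92 uM for 16 h at 37 C. CCF4 beta-lactamase read-out after 2 h RT. Normalized to chenodeoxycholic acid (100 uM) and DMSO; Hill fit gave EC50 and efficacy.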

[22] = target: Glucocorticoid receptor (Homo sapiens) (UniProt P04150); assay: qHTS assay for small molecule antagonists of glucocorticoid receptor signaling (AID 588533; active = well fitted inhibition curve with a large enough effect in the signal ratio, with a control signal flat, not every such curve was filed as active; inconclusive = small, poorly fitted or top-dose-only effect, or effect the other way, or a change in a side signal; the % refers to the signal ratio;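 note: cells stimulated with 2 nM dexamethasone as agonist; % is set by controls: 0 for no effect and ±100 for the full control effect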); conditions: HeLa MMTV-bla, GRE beta-lactamase ratio, antagonist mode, 18 h; activity change, negative = inhibition: at 76.8 µM (top of the series)
[23] = target: Peroxisome proliferator-activated receptor gamma (Homo sapiens) (UniProt P37231); assay: qHTS assay for small molecule agonists of peroxisome proliferator-activated receptor gamma signaling (AID 588536; active = well fitted curve in the direction sought with a large enough effect in the signal ratio, with a control signal flat, not every such curve was filed as active; inconclusive = small, poorly fitted or top-dose-only effect, or effect the other way, or a change in a side signal; inactive = no such curve, though single readings can be large or run the other way; the % refers to the signal ratio;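 note: 0% = DMSO basal wells and 100% = rosiglitazone at 2 µM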); conditions: HEK293 PPARg-UAS-bla, beta-lactamase ratio, 16 h; activation: at 76.7 µM (top of the series), percent of rosiglitazone response, DMSO as zero
Outline: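 Cells were plated and held 6–6.5 h at 37 C, then compounds were added as a titration series. After a further 16 h, CCF4 dye was loaded for 2 h at room temperature and emission at 460/530 nm recorded.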

[24] = qHTS assay for small molecule antagonists of the retinoid-related orphan receptor gamma (ROR-gamma) signaling pathway - cell viability counter screen (AID 720652; active = well fitted curve in the direction sought with a large enough effect in the repeat runs; inconclusive = weak or mixed curves; inactive = no such curve, though single readings can be large; an effect the other way counts as inactive or inconclusive;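 note: CHO reporter cells with doxycycline-induced ROR-gamma expression; compound exposure lasted 16 hr before ATP read; % is set by controls: 0 for no effect and ±100 for the full control effect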); conditions: RORgamma reporter cell line viability counter screen; series mostly up to 92.2 µM
Outline: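 Cytotoxicity counter screen: intracellular ATP (CellTiter-Glo luminescence) measured in the doxycycline-induced CHO RORE-luciferase reporter line after 16 hr compound exposure at 37 C, 5% CO2.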

[25] = activation: at 96 µM (top of the series) unless noted
Tags give direction and shape of the fitted curve or compound fluorescence and quenching.

c1ccc2c(c1)Oc1ccccc1S2
inactive: Potency [1] | Potency [3] | Potency [5] | activation [6] -18.3% | Potency [7] | Potency [8]
inconclusive: Potency [2] 1.26 µM [cytotoxic, full curve, poor fit] | Potency [4] 3.98 µM [side channel, falling, full curve, poor fit]

Nc1cc([N+](=O)[O-])ccc1C(=O)O
inactive: Potency [10] | Potency [11] | Potency [12] | activation ([14]; at 96 µM (top of the series)) 3.92%
inconclusive: activity change, negative = cytotoxicity [9] -36.8% | activity, negative = inhibition [13] 6.51% | Potency [6] 0.0079 µM [side channel, falling, full curve, poor fit] | activation [14, 25] 11.9% | Potency [15] 47.3 µM [inhibitor, partial curve, poor fit] | activation [7] -12.8%

C1CCC2OC2C1 (stereo not drawn)
inconclusive: Potency [18] 0.005 µM [inhibitor, full curve, poor fit] | activation [7] -17.6%
inactive: Potency [16] | Potency [11] | viability change, negative = cytotoxic [17] 3.44% | Potency [15] | Potency [19]

OCC(CO)(CBr)CBr
inactive: Potency [16] | Potency [20] | Potency [22] | Potency [23] | activation ([14]; at 96 µM (top of the series)) -0.88% | Potency [19] | Potency [7] | Potency [24]
inconclusive: Potency [9] 31.6 µM [falling, full curve, poor fit] | Potency [21] 70.8 µM [side channel, rising, single point] | Potency [4] 0.0398 µM [side channel, falling, full curve, poor fit] | activity, negative = inhibition [13] 9.53% | activation [14, 25] -3.08%
